# Some of the results follow.
# Tested on: PF3D7_0420300 AP2 domain 1 (GST-tagged)
# Test: gcPBM binding intensity (ln(normalized median fluorescence intensity)); higher = stronger DNA binding
# Outline: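 The binding buffer was 1× PBS containing 1% milk, 0.2 mg/ml BSA, 0.5% salmon testes DNA and 0.03% Triton X-100. In it, GST-tagged P. falciparum DNA-binding domains expressed in E. coli were applied for 1 h to an Agilent 4 × 180k array of primer-extended double-stranded 36-bp intergenic genomic probes plus negative controls. Binding intensity, read with Alexa488 anti-GST antibody and a 488 nm scan, is the highest Masliner-normalised natural-log median intensity across replicate spots of either probe orientation.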
row,Sequence,gcPBM binding intensity (ln)
1,AAAAAAAAAAAAAAAACACACATTTCTTTTTCATAT [CACACA_site11],9.38
2,TTAATTATATATAAAAGTACTTATTTTTCCATATAA [XGTACX_site3033],8.8
3,TAATAGGAAATTATAGGTACACATACAAATAAATAA [XGTACX_site3587],9.43
4,TTGCAAATATATGGTTGTACTCAAAAAAAAAAAAAA [XGTACX_site6975],8.87
5,TTTGTAGATTTTGTAACACACACATATATATACATA [CACACA_site8757],9.63
6,TATGCACCCAGACACACACACACAACTAAAAAATAA [CACACA_site2567],9.96
7,TACCATTATTTTAAGTGTACATACTAATTTATATAT [XGTACX_site6548],9.34
8,AAAATATAATATATTGCACACAAAAAGTGAATTATT [CACACA_site8489],9.47
9,TCTTTCTATTTATAATGTACTCAAAATTATTCTATA [XGTACX_site4867],9.01
10,AAATTGTGTGAAATATATTAATATTATTATTATTAT [TGCATGCA_negctrl_site189],9.19
11,CCTTGCATTTATTATACACACACAAAAAAATATATA [CACACA_site7964],9.68
12,TTTTACCACTAAAAATGTACAAAAAAAAAAAAAAAA [XGTACX_site4226],8.59
13,ATGCGTATACTAAGAACACACAAGTTACTTGGTGTT [CACACA_site1625],9.26
14,ATTAATGATTTTTGTTGTACATTATTAATTTACATT [XGTACX_site544],9.47
15,CATACATACATACATACACACATACATATGTATTTA [CACACA_site5384],9.64
16,TATTTTATATTTCATTTGTTATTTTTCTTGGTTCTA [CACACA_negctrl_site33],9.49
17,CAACACTTTCAAAAATGTACGTACAAATGTATTTTA [XGTACX_site6713],8.98
18,ACAAAATAAAGACACACACACAAACACAAAAAAATA [CACACA_site7568],10.2
19,AGTTTCCATATGAGGTGTACATATATAATTTATTAT [XGTACX_site2369],9.44
20,CAAAAATAACGAGTCAAACACACATATATATATATA [CACACA_site2038],9.41
21,AAAGGGATAACACCAAAAAAAATAAAAATAAAAATA [GTGCAC_negctrl_site680],9.24
22,TCAAGAATTTTAAAGAGTACATAAAACAATAATATA [XGTACX_site3923],9.18

row,Sequence,gcPBM binding intensity (ln)
1,AATGTAATATAAATATGTACATATAAACTATATATA [XGTACX_site6871],9.35
2,ATTATATATATATATATATATATATATATATTATAT [CACACA_negctrl_site234],8.89
3,ACTTATGATTTATTTTGTACATATATACTATTCCTG [XGTACX_site5275],9.65
4,GTTTTAAAACAAATATGTACACATAATATAGGAAAG [XGTACX_site1803],9.23
5,GCTCCTTTTACCATCGCACACGATAAAAAAAAATAA [CACACA_site3255],9.35
6,ACAAATACTAACAACGCATGTAAGCCTACAATAAAT [TGCATGCA_site551],9.52
7,TTTTTTTTCTAAATTATATGAAAATATATGTTATGT [GTGCAC_negctrl_site85],9.09
8,TACATAAACATTTATACACACATTATAAATACATAT [CACACA_site4386],9.73
9,ATTTTCTATTTTATTTGTACGTAATTTAATTTTTTT [XGTACX_site3609],9.59
10,ACAATTTTAAAATGAACACACATGTTTTTCTTACTT [CACACA_site1014],9.42
11,AAGTAATTTGTTGACACACACACACGCATACCTATA [CACACA_site7140],10.2
12,TCCCAATTTCTATCCTGTACAGACATAAATATATAC [XGTACX_site5937],9.34
13,ATAAATCCATGTAACTGTACTTTTTTTTTTTTTTTT [XGTACX_site7373],9.33
14,TTTTGAAATTTTTGTGTTTTTCCTTTTTATTTTATA [CACACA_negctrl_site1740],9.46
15,ATAAAGATTAATAAAATAAAATTCCGCAAACATATA [CACACA_negctrl_site244],9.33
16,AGATAGCTATTAAAAAGTACAAAAAAATATATATAT [XGTACX_site6289],9.37
17,ATAAATACAGATATTACACACTTCTTATTCTAAGAA [CACACA_site5640],9.24
18,TATACAGGAATATTTTTACACACTAATAATTATAAA [CACACA_site8477],9.35
19,TATTTACAACAAATTTAATTATTTTTAACTTATAAA [GTGCAC_negctrl_site259],8.8
20,TATTTTATATAAAGGTGTACTTATACAAAAATATAT [XGTACX_site7435],9.07
21,TTTTTTCAAATTATTCGATATGTAAAAAAATAAAAT [GTGCAC_negctrl_site241],8.83
22,AAATATTTGTGTGGTTGTACTATAATGATAAAAATA [XGTACX_site7703],9.3

# Reference: the supplement of paper PMC11417369
